# Measurements reported in the supplement of paper PMC3334620.
# The full ranking holds about 33,000 sequences; the median of “E-score (-0.5 to 0.5)” is about -0.035, and the highest 2% start at about 0.35. The list shows a part of the results.
# Target: T1, Pdr3 (UniProt P33200)
# T1 sequence: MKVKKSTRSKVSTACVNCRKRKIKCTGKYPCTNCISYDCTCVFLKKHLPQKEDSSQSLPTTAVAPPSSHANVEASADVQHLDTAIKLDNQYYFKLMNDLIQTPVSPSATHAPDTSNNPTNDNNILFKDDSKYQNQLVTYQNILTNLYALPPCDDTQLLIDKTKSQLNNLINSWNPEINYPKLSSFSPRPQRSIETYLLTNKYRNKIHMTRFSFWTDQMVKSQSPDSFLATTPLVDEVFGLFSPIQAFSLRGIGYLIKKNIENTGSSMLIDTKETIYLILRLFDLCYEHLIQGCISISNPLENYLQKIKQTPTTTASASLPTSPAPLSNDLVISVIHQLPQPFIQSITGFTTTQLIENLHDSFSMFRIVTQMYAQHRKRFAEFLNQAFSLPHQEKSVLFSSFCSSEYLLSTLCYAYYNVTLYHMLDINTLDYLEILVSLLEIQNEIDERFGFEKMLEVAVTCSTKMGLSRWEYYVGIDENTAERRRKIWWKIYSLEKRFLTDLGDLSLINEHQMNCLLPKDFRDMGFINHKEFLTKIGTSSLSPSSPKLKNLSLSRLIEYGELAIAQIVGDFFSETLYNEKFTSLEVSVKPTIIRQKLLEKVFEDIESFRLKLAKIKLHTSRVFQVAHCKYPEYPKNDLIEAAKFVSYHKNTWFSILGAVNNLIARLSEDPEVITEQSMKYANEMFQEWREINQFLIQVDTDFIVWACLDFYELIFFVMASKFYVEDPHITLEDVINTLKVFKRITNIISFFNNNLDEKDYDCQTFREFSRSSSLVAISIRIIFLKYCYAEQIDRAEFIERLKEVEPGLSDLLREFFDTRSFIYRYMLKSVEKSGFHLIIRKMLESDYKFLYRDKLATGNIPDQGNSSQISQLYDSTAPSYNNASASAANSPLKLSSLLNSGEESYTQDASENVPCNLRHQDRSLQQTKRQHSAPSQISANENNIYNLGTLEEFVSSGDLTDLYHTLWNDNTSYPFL
# Experiment: PBM E-score (8-mer binding enrichment) (E-score (-0.5 to 0.5)); higher = stronger / more preferred TF binding; most listed sequences are background and not binding sites
# Details: protein concentration: 200 nM; construct: GST-full length
# Summary of the method: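 Yeast transcription factors carrying a GST tag, as full-length proteins or DNA-binding domains, were produced by PURExpress in vitro transcription/translation. About 100-200 nM protein was applied to universal all-10-mer Agilent arrays, double-stranded by primer extension on fresh or once-stripped slides. Bound protein was detected with fluorescent anti-GST, and scans were normalised with masliner. The Universal PBM Analysis Suite gave each ungapped eight-base word, pooled with its reverse complement, an E-score, a modified Wilcoxon-Mann-Whitney statistic.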
row,Sequence,PBM E-score
1,ATCCGTGC,0.267
2,CGCGCAAC,0.195
3,AAATGGGG,-0.208
4,CCACGTTA,-0.079
5,ATAGGACA,-0.221
6,ACTATCCA,-0.0237
7,CTAGAGTA,-0.165
8,ATCAATAG,-0.229
9,CTCCCTCA,-0.227
10,AACCCTTC,0.0652
11,AATTCGTC,0.042
12,ACACCAGT,-0.19
13,AGAACCCA,-0.176
14,GCCCTGGA,0.0153
15,CCCGATGC,0.116
16,ACACAAAC,-0.035
17,GCACTGAC,-0.0877
18,GAGGACCA,-0.0704
19,GGCTATGA,-0.103
20,TATTTGGA,-0.317
21,CATAGGAA,-0.0996
22,CCCAGACA,-0.15
23,CCACGAGA,-0.11
24,AGTCCTCC,-0.11
25,TCTTTTAA,-0.18

row,Sequence,PBM E-score
1,CTCTCCAA,0.033
2,ATGGCACA,-0.0134
3,CCGTTGAG,0.178
4,AGTTGGGC,0.0446
5,GGTTTTTA,-0.113
6,GACCGAAA,0.0936
7,ACCGTAAG,1e-05
8,AAGTCTCG,-0.0989
9,CAAAAGTA,-0.0314
10,ACTAACTA,-0.159
11,CCGGAGGA,0.347
12,ATGGGCTA,0.0294
13,ACACGGCC,0.14
14,CCAACCAA,-0.0996
15,CGCTGAGC,-0.045
16,CCTACGAC,-0.217
17,TCGTAAAA,-0.0331
18,CTATGGCA,-0.222
19,TCATGCCA,-0.17
20,CAGCCCTC,-0.138
21,AGGCGGTG,-0.127
22,ACTAGCCG,0.105
23,CCTCTGCA,-0.0558
24,AAGGGTCG,-0.0133
25,GTAGTGAC,0.0971

row,Sequence,PBM E-score
1,CGCATCCA,-0.0631
2,AGGCATTA,-0.12
3,CATCGACG,0.0551
4,GGCTGTAA,-0.226
5,CGGGGTCC,0.189
6,GCTCGATA,-0.00112
7,AGATCTCA,0.0197
8,GAGAACGA,0.0602
9,AAACAACA,-0.149
10,CGATTATC,0.0984
11,ACGCCACC,-0.184
12,ATAATTTG,0.107
13,TCTGAAGA,-0.234
14,TCTCTGCA,-0.0846
15,CCACATCG,-0.0316
16,CGGGGATA,0.33
17,AAGTTGTA,-0.0735
18,AGACATCA,-0.0175
19,CAGGGTTA,-0.235
20,ACTGTCAC,-0.115
21,AGGTGTTA,-0.336
22,CGACGTCC,0.143
23,ACAATAAA,-0.0463
24,CCCGTTAA,0.17
25,GCTCGAGA,-0.203

row,Sequence,PBM E-score
1,ACGACGCT,-0.14
2,ATAGCTAC,-0.0621
3,AACATTGG,-0.171
4,GCCGTTGA,0.0969
5,GCTTATGA,-0.0958
6,GTTGTACA,-0.0334
7,GGCCATGA,0.0323
8,ATATAGAC,-0.0108
9,CACCGTAA,-0.0554
10,CCCCAGAC,-0.23
11,ACGCAACG,0.133
12,AAAACTCG,0.027
13,TCACTGAA,0.0661
14,CATCTCTC,0.182
15,AGTCGTTC,-0.167
16,AGATGGAT,-0.0516
17,ACTCAAAA,-0.0874
18,CACCTCGA,0.193
19,CCCAGGTC,-0.21
20,ATTCTTAC,-0.0923
21,CCTGCGCC,-0.00774
22,ATTAGAGG,-0.0767
23,CTGCAATC,0.0967
24,TAAGATGA,-0.272
25,ATCCGTAG,0.231

row,Sequence,PBM E-score
1,GACAATAC,0.165
2,CCTCGACA,-0.104
3,CTGTCAGA,-0.0126
4,CTACAGTA,-0.207
5,GGAAATAC,0.163
6,AGCGTTAC,-0.243
7,ATGGAGAA,0.0258
8,AGTCCGAC,0.0612
9,AGAACGGA,0.316
10,AAGAAGCA,0.0408
11,GCGCTACC,-0.174
12,TTATCAAA,-0.0369
13,TATGAACA,-0.127
14,GCGAGGCA,0.168
15,AAGACGCT,-0.218
16,ATTTAATA,0.182
17,AAATGGAA,0.0065
18,GTGAGGTA,-0.0646
19,CAGCCACC,0.0383
20,AGTAATAT,0.0891
21,CTCAGACC,-0.0888
22,CACAAAAG,0.0197
23,CAGGGCTC,-0.249
24,CGAGAAAA,-0.115
25,CTAATCGC,0.101

row,Sequence,PBM E-score
1,GGTGGGTA,0.033
2,CGCGACCA,0.244
3,CACGATTA,0.0766
4,ATCCTTCG,0.111
5,GATGGCAC,-0.0693
6,AGTCTGAC,-0.0823
7,AAAACTGA,-0.123
8,ATTGCGGA,0.328
9,CCGCAAGG,0.0699
10,CTAACGCA,-0.0349
11,GAGTCCAC,-0.0806
12,ACTCGAAT,-0.187
13,CGTAGCGA,0.127
14,AGATTATA,-0.0715
15,AAACACGA,-0.0368
16,ATTCTCCG,0.332
17,CACACGAG,-0.276
18,ATTTTGTA,0.0382
19,TCAGCGAA,-0.244
20,CAGCTTCA,-0.167
21,CAGGTAAC,-0.207
22,CGTATCTA,0.0613
23,ACAGAAAC,-0.057
24,CCCTCAAC,-0.133
25,CGATATCG,0.195

row,Sequence,PBM E-score
1,AGATGAGG,-0.175
2,AGGAGTGC,-0.0635
3,GAAACCTC,-0.0299
4,AAGAAAGA,-0.0237
5,CTAGAAAC,-0.227
6,GGTGCCGA,0.281
7,ACGGTCGG,0.123
8,TGATCGCA,-0.289
9,ATCTGACA,-0.306
10,AGCTCTCG,-0.0644
11,CCATGTAG,0.0164
12,AATGCCCT,-0.102
13,ATAGCTTC,-0.113
14,GATACTAC,0.0582
15,CTCGGGTC,0.279
16,AGGAGGCC,-0.236
17,GAATATAA,0.0103
18,CGGTAATA,0.275
19,CCTCTCCG,0.141
20,AGTGACAA,-0.147
21,AGTAGGCA,-0.0146
22,ACGACTCG,-0.137
23,TCACGACA,-0.0577
24,TTACGAAA,-0.0461
25,AACTATTG,-0.0889

row,Sequence,PBM E-score
1,AAGCCATT,-0.115
2,AGTAACCC,0.0458
3,CCCAAAGC,-0.164
4,CGAGCACA,0.135
5,GAATGTAA,0.197
6,CGCGCTAA,0.205
7,AGCCTTTG,-0.281
8,AACGGAAT,0.468
9,ACAGCCGA,0.0243
10,ACGTAGCA,-0.122
11,AAGGTTAA,-0.189
12,CGACGACC,0.164
13,CGCCTTCC,0.109
14,ATTCCAAC,-0.117
15,GCCCGGCC,0.272
16,AAACATTC,-0.162
17,GGCGGATA,0.287
18,AGATTAGG,-0.135
19,CGTGCGTA,-0.0334
20,GCCAACCA,-0.0867
21,AGCCGGAA,0.438
22,CATTAGCA,-0.203
23,TGACCTAA,-0.061
24,AGGTGACT,-0.168
25,CTTTCCGC,0.384

row,Sequence,PBM E-score
1,CCACATTC,0.0586
2,GCAGATCC,0.107
3,AGGGGGCC,-0.238
4,CTAAGATC,-0.0406
5,CCCAATAG,-0.244
6,AGCGTTTC,-0.151
7,GGTAGGTA,-0.088
8,GCGTCCGA,0.153
9,ATCCTGTG,-0.185
10,GATAGACA,-0.162
11,CCAGTCGG,0.144
12,ATGGGCGG,0.244
13,AATAATTA,0.11
14,AAGTATGG,-0.0779
15,ATTAGTAC,-0.0759
16,CAGCCCCC,-0.248
17,CTGGGAGA,0.00461
18,AGCTGGGG,-0.0684
19,GTACCGAA,-0.0418
